{"source": "PubChem BioAssay AID651820", "about": "(National Center for Advancing Translational Sciences (NCATS), 2012)", "note": "Several values for one entry are separate records, joined by “and”; a condition that tells them apart may be missing. Equal entries are not always repeated. The campaign covered roughly 340,000 compounds. About 12,000 (3.5%) were called active. This list was built around the results that the source calls inconclusive (neither active nor inactive); the mix of calls is not that of the screen. The call rests on the fitted dose curve; in most records, active means well fitted inhibition curve with a large enough effect; inconclusive means small, poorly fitted or top-dose-only effect, or another doubt; inactive means no such curve, though single readings can be large or run the other way. Where the call is inconclusive, the potency comes from a doubtful curve fit."}
{"experiment": "qHTS Assay for Inhibitors of Hepatitis C Virus (HCV); further: potency means the concentration at half of the fitted maximal effect; tags describe the fitted curve by direction and shape; on activity change, negative = inhibition: on the % scale 0 is the no-effect control and ±100 the full control effect", "details": "Huh7.5.1 HCVcc-Cre (HCVcc is cell-culture hepatitis C virus) infection, luciferase reporter, 44 h; activity change, negative = inhibition: at 41.8 µM (top of the series) unless noted", "summary_of_the_method": "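Cells (1,000/well) were plated 4 h before compound, then infected with HCVcc-Cre virus (~0.5 moi). After 44 h further culture, infection was read as luciferase luminescence following a 15 min substrate incubation at room temperature.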"}
{"compound": "CC1(c2ccc3ccccc3c2)NC(=O)N(CC(=O)N2CCN(Cc3ccc(C#N)cc3)CC2)C1=O", "note": "(centres undefined)", "Potency": "active: 1.26 µM"}
{"compound": "O=C(Nc1ccncc1)Nc1ccc(Br)cc1Cl", "activity change, negative = inhibition": "inactive: -20.4%"}
{"compound": "Cc1nc(C(=O)Nc2ccc(Cl)cc2)sc1C1(C)CC(c2ccccc2)=NO1", "note": "(centres undefined)", "Potency": "inconclusive: 2.24 µM [inhibitor, full curve, poor fit]"}
{"compound": "Cc1cc(C(=O)CSc2nnc(-c3cccnc3)n2-c2ccccc2F)c(C)n1C", "Potency": "inconclusive: 31.6 µM [inhibitor, single point]"}
{"compound": "CC(C)N1CC(O)=C(c2nc3ccccc3[nH]2)C1=N", "activity change, negative = inhibition": "inactive: 9.54%"}
{"compound": "Brc1ccc(/C=N/n2cnnc2)s1", "activity change, negative = inhibition": "inactive: 6.23%"}
{"compound": "O=C(CC(Nc1ccccc1)c1ccccc1)C1CC1", "note": "(centres undefined)", "activity change, negative = inhibition": "inactive: 13.2%"}
{"compound": "CC1(C)CCc2c([nH]c3ccccc3c2=O)O1", "activity change, negative = inhibition": "inactive: 24.8%"}
{"compound": "CCCNc1nc2c(c(=O)n(C)c(=O)n2C)n1CCc1ccccc1", "Potency": "active: 14.1 µM"}
{"compound": "Cc1c(OC(C)C(=O)NCCN2CCOCC2)ccc2c(-c3ccccc3)cc(=O)oc12", "note": "(centres undefined)", "Potency": "inconclusive: 14.1 µM [inhibitor, single point]"}
{"compound": "O=C(COc1ccc(Cl)cc1Cl)Nc1ccc(CN2CCCCC2)cc1", "activity change, negative = inhibition": "inactive: -8.02%"}
{"compound": "Cc1cc(Nc2ccccc2Cl)nc(-c2ccccc2O)n1", "Potency": "inconclusive: 31.6 µM [inhibitor, single point]"}
{"compound": "COc1ccc(CCNC(=O)C(=O)NCc2ccc(Cl)cc2)cc1OC", "activity change, negative = inhibition": "inactive: -3.92%"}
{"compound": "COc1cc2c(C)nc3c(cnn3-c3ccccc3)c2cc1OC", "Potency": "inconclusive: 35.5 µM [inhibitor, partial curve]"}
{"compound": "CC(=O)NC(Cc1ccccc1F)C(=O)NC1CCN(c2ncccc2[N+](=O)[O-])CC1", "note": "(centres undefined)", "activity change, negative = inhibition": "inactive: 7.47%"}
{"compound": "Cc1ccc(C(=O)/C=C/c2ccccc2)o1", "activity change, negative = inhibition": "inactive: -25.5%"}
{"compound": "O=C(OCc1ccc(Br)cc1)c1cccc(-c2nnc(-c3ccccc3)o2)c1", "Potency": "inconclusive: 35.5 µM [inhibitor, single point]"}
{"compound": "O=C(Nc1nnc(C2CC2)s1)c1cc2ccccc2o1", "activity change, negative = inhibition": "inactive: -17.8%"}
{"compound": "Cc1[nH]nc2c1C(c1ccc3c(c1)OCO3)C(C#N)=C(N)O2", "note": "(centres undefined)", "activity change, negative = inhibition": "inactive: -0.497%"}
{"compound": "C=CCn1c(=O)c2c(nc3n2CCCN3CCc2ccc(OC)c(OC)c2)n(C)c1=O", "Potency": "inconclusive: 20 µM [inhibitor, single point]"}
{"compound": "CCc1nnc2sc(-c3ccc(NC(=O)c4ccco4)cc3)nn12", "Potency": "inconclusive: 7.08 µM [inhibitor, partial curve]"}
{"compound": "O=C(NCC1CCCO1)c1ccc2c(=O)n(CC3CCCO3)c(=S)[nH]c2c1", "note": "(centres undefined)", "activity change, negative = inhibition": "inactive: -22.5%"}
{"compound": "CCc1cccc(NS(=O)(=O)c2c(C)[nH]c(=O)[nH]c2=O)c1", "activity change, negative = inhibition": "inactive: 10.7%"}
{"compound": "Cc1c(C#N)c(NC(=O)CCl)n(Cc2cccs2)c1C", "Potency": "inconclusive: 22.4 µM [inhibitor, single point]"}
{"compound": "CCC1(C)CC(CCN(Cc2ccco2)C(C)=O)(c2ccccc2)CCO1", "note": "(centres undefined)", "Potency": "inconclusive: 31.6 µM [inhibitor, single point]"}
{"compound": "CCCCCC(O)(c1ccc(OC)cc1)C(CN1CCOCC1)c1ccccc1", "note": "(centres undefined)", "Potency": "inconclusive: 22.4 µM [inhibitor, single point]"}
{"compound": "O=C(COC(=O)/C=C/c1ccc([N+](=O)[O-])cc1)NCC1CCCCC1", "activity change, negative = inhibition": "inactive: 17.8%"}
{"compound": "O=C(Nc1ccc(Nc2ccccc2)cc1)c1ccc(Br)o1", "Potency": "inconclusive: 8.91 µM [inhibitor, partial curve]"}
{"compound": "CC(C)c1c(C#N)c(N)nc(SCC(=O)c2cc3ccccc3oc2=O)c1C#N", "Potency": "inconclusive: 31.6 µM [inhibitor, single point]"}
{"compound": "COc1ccc(-n2c(SCC(N)=O)nc3sc4c(c3c2=O)CCC4)cc1", "Potency": "active: 10 µM"}
{"compound": "CC(C)(C)C(=O)Nc1ccc(C(=O)OC2CCCCC2)cc1", "Potency": "inconclusive: 8.91 µM [inhibitor, partial curve]"}
{"compound": "CC1(C)Cc2c(sc3c2c(=N)n(Cc2ccco2)c(=O)n3Cc2ccccc2)CO1", "Potency": "inconclusive: 22.4 µM [inhibitor, single point] and inconclusive: 501 nM [inhibitor, full curve, poor fit]"}
{"compound": "COc1cc(/C=N/n2c(=S)[nH]nc(C)c2=O)cc([N+](=O)[O-])c1O", "activity change, negative = inhibition": "inactive: 0.923%"}
{"compound": "FC(F)(F)c1cc(-c2ccco2)nc(N2CCOCC2)n1", "Potency": "inconclusive: 31.6 µM [inhibitor, single point]"}
{"compound": "CCC(=O)N1CCCc2cc(S(=O)(=O)N3CCN(C4CCCCC4)CC3)ccc21", "Potency": "inconclusive: 25.1 µM [inhibitor, single point]"}
{"compound": "COCc1c(C(=O)N(C)Cc2ccccc2N2CCCC2)oc2ccccc12", "Potency": "inconclusive: 11.2 µM [inhibitor, partial curve, poor fit]"}
{"compound": "O=C(NCCCN1CCCCCC1)c1cc2c(=O)oc3ccccc3c2s1", "Potency": "inconclusive: 10 µM [inhibitor, single point]"}
{"compound": "O=C(NCCc1ccc(F)cc1)c1ccc(Cl)c(S(=O)(=O)N2CCOCC2)c1", "Potency": "inconclusive: 22.4 µM [inhibitor, single point]"}
{"compound": "C=CCNC(=S)N/N=C/c1ccc(C(F)(F)F)cc1", "Potency": "active: 8.91 µM"}
{"compound": "O=C(Nc1ccc2c(c1)CCC2)c1cc(=O)[nH]c2ccccc12", "Potency": "inconclusive: 2.24 µM [inhibitor, full curve, poor fit]"}
{"compound": "CCn1c2ccccc2c2cc(C#N)c(N)nc21", "Potency": "active: 12.6 µM"}
{"compound": "COc1cc(-c2cc(C(=O)Nc3cccc(S(=O)(=O)N(C)C)c3)c3ccccc3n2)cc(OC)c1OC", "Potency": "inconclusive: 1 µM [inhibitor, full curve]"}
{"compound": "Cc1nnc(Sc2cc(C(=O)NCCCN(C)Cc3ccccc3)c3ccccc3n2)s1", "activity change, negative = inhibition": "inactive: -12.9%"}
{"compound": "Cc1ccc(S(=O)(=O)N2CCN(Cc3cc(C(C)C)ccc3O)CC2)cc1", "activity change, negative = inhibition": "inactive: -10.4%"}
{"compound": "COc1ccc(N2C(=O)CSC2c2cccs2)cc1", "note": "(centres undefined)", "activity change, negative = inhibition": "inactive: 33.9%"}
{"compound": "O=C(O)COc1ccc(NC(=O)c2ccc3c(c2)C(=O)N(C2CCCCC2)C3=O)cc1", "activity change, negative = inhibition": "inactive: -3.65%"}
{"compound": "c1ccc(-c2csc3ncnc(NCCCN4CCOCC4)c23)cc1", "Potency": "inconclusive: 14.1 µM [inhibitor, single point]"}
{"compound": "Cc1nnc(NC2(C(F)(F)F)C(=O)Nc3c2c(=O)n(C)c(=O)n3C)s1", "note": "(centres undefined)", "activity change, negative = inhibition": "inactive: -29.4%"}
{"compound": "COc1ccc(CN(C(=O)CN2C(=O)NC3(CCC(C)CC3)C2=O)C(C)Cc2cccs2)cc1", "note": "(centres undefined)", "Potency": "inconclusive: 22.4 µM [inhibitor, single point]"}
